# Results published in patent US12564641B2 (EISAI R&D MANAGEMENT CO., LTD., priority 2019, dated 2026).
# Read-outs that look alike come from different tables or passages of the source.
# B1: MORAb109 (DAR2) (conjugate)
# heavy: QVQLVESGGGVVQPGRSLRLSCAASGIDLSSYAMSWVRQAPGKGLEWIGVIDISGNRFYADWVKGRFTISRDNSKNTLYLQMSSLRAEDTAVYYCARVDSRAWGPFNLWGQGTLVTVSS[skipping human IgG1 constant region]
# light: DYQMTQSPSSLSASVGDRVTITCQASQSIFSYLAWYQQKPGKAPKLLIYDASDLASGVPSRFSGSGSGTDFTLTISSLQCEDAATYYCQQGYTRSDVDNAFGGGTKVEIKRTVAAPSVFIFPPSDEQLKSGTASVVCLLNNFYPREAKVQWKVDNALQSGNSQESVTEQDSKDSTYSLSSTLTLSKADYEKHKVYACEVTHQGLSSPVTKSFNRGEC
# modifications: non-natural residues
# B2: MORAb109 (DAR6) (conjugate)
# heavy: B1 heavy
# light: B1 light
# B3: MORAb109_DAR6 (conjugate)
# heavy: B1 heavy
# light: B1 light
# B4: MORAb109_DAR2 (conjugate)
# heavy: B1 heavy
# light: B1 light
# modifications: non-natural residues
# Columns and labels:
# [1] = test system: various cell lines (51 cell lines); test: In vitro potency (IC50, Crystal Violet) in cell lines with varying mesothelin expression; assay type: cell-based
# [2] = test system: MSLN-negative cell lines; test: In vitro cytotoxicity (IC50, Crystal Violet) on MSLN-negative cell lines (Example 11); assay type: cell-based; conditions: for IC50: read-out: In vitro cell based potency, IC50
# Protocol: Plates were incubated at 37° C. 5% CO2 for an additional 5 days. […] Plates were read at 570 nm.
# [3] = test system: MSLN-positive cell lines; test: In vitro cytotoxicity (IC50, Crystal Violet) on MSLN-positive cell lines (Example 11); conditions: for IC50: read-out: In vitro cell based potency, IC50
# [4] = A431-K5 cells (MSLN MFI 1430.3)
# [5] = Kuramochi cells (MSLN MFI 211.2)
# [6] = NCI-H292 cells (MSLN MFI 108.6)
# [7] = NCI-H1355-Sorted cells (MSLN MFI 32.7)
# [8] = NCI-H1355 cells (MSLN MFI 11.5)
# [9] = NCI-H1568/MSLN cells (MSLN MFI 4474)
# [10] = NCI-H1573 cells (MSLN MFI 17.4)
# [11] = NCI-H1650/MSLN cells (MSLN MFI 1865.5)
# [12] = NCI-H1650 cells (MSLN MFI 31.5)
# [13] = NCI-H2110 cells (MSLN MFI 112.2)
# [14] = NCI-H2126 cells (MSLN MFI 73.6)
# [15] = NCI-H1568/MSLN cells (MSLN MFI 4474.00)
# [16] = OVCAR3-A1 cells (MSLN MFI 220.0)
molecule,measurement,setting,value
B1,IC50,[1]; [4],0.45 nM
same,IC50,[1]; A431 cells (MSLN MFI 5.6),71.5 nM
same,IC50,[1]; A549 cells (MSLN MFI 14.2),276 nM
same,IC50,[1]; BxPC3 cells (MSLN MFI 15.59),86.2 nM
same,IC50,[1]; CNE2 cells (MSLN MFI 147.7),69.5 nM
same,IC50,[1]; COV362 cells (MSLN MFI 113.5),193 nM
same,IC50,[1]; CaOV-3 cells (MSLN MFI 137.6),20.9 nM
same,IC50,[1]; Capan-2 cells (MSLN MFI 36),138 nM
same,IC50,[1]; EGI-1 cells (MSLN MFI 14.8),188 nM
same,IC50,[1]; H226 cells (MSLN MFI 725.3),7.46 nM
same,IC50,[1]; HAC-2 cells (MSLN MFI 172.3),228 nM
same,IC50,[1]; HCC1806 cells (MSLN MFI 189.3),35.5 nM
same,IC50,[1]; HEC-1-A cells (MSLN MFI 16.5),141 nM
same,IC50,[1]; HEC-1-B cells (MSLN MFI 16.9),66.3 nM
same,IC50,[1]; HEC-251 cells (MSLN MFI 53.3),67.2 nM
same,IC50,[1]; HK1 cells (MSLN MFI 39.2),198 nM
same,IC50,[1]; HNE-1-T1 cells (MSLN MFI 79.3),347 nM
same,IC50,[1]; HNE-1 cells (MSLN MFI 110.8),239 nM
same,IC50,[1]; HONE1 cells (MSLN MFI 108.6),198 nM
same,IC50,[1]; JIMT-1 cells (MSLN MFI 36.4),61.8 nM
same,IC50,[1]; [5],898 nM
same,IC50,[1]; MFE-280 cells (MSLN MFI 45.1),196 nM
same,IC50,[1]; MKN1 cells (MSLN MFI 22.06),20.1 nM
same,IC50,[1]; MKN7 cells (MSLN MFI 18.48),86.5 nM
same,IC50,[1]; MKN45 cells (MSLN MFI 57.94),100 nM
same,IC50,[1]; MKN74 cells (MSLN MFI 7.73),67 nM
same,IC50,[1]; NCI-H23 cells (MSLN MFI 4.42),66.7 nM
same,IC50,[1]; [6],147 nM
same,IC50,[1]; NCI-H322 cells (MSLN MFI 83.9),62.8 nM
same,IC50,[1]; [7],96.9 nM
same,IC50,[1]; [8],79.8 nM
same,IC50,[1]; [9],1.69 nM
same,IC50,[1]; [10],60.4 nM
same,IC50,[1]; [11],1 nM
same,IC50,[1]; [12],92.2 nM
same,IC50,[1]; [13],52.2 nM
same,IC50,[1]; [14],87.9 nM
same,IC50,[1]; NCI-N87 cells (MSLN MFI 125.8),14.7 nM
same,IC50,[1]; OVCAR3 A1 cells (MSLN MFI 220),0.005 nM
same,IC50,[1]; PC9 cells (MSLN MFI 11.24),85.1 nM
same,IC50,[1]; SNU216 cells (MSLN MFI 94.91),73.4 nM
same,IC50,[1]; SNU-245 cells (MSLN MFI 23.9),356 nM
same,IC50,[1]; SNU-478 cells (MSLN MFI 53.8),228 nM
same,IC50,[1]; SNU-1196 cells (MSLN MFI 40.2),128 nM
same,IC50,[1]; SUNE1 cells (MSLN MFI 212.4),77.8 nM
same,IC50,[1]; T-47D cells (MSLN MFI 4.4),95.9 nM
B2,IC50,[1]; [4],0.35 nM
same,IC50,[1]; A431 cells (MSLN MFI 5.6),14.2 nM
same,IC50,[1]; A549 cells (MSLN MFI 14.2),41.3 nM
same,IC50,[1]; AsPC1 cells (MSLN MFI 33.47),3.13 nM
same,IC50,[1]; BxPC3 cells (MSLN MFI 15.59),5.88 nM
same,IC50,[1]; CNE2 cells (MSLN MFI 147.7),1.64 nM
same,IC50,[1]; COV362 cells (MSLN MFI 113.5),45.3 nM
same,IC50,[1]; CaOV-3 cells (MSLN MFI 137.6),0.51 nM
same,IC50,[1]; Capan-2 cells (MSLN MFI 36),1.99 nM
same,IC50,[1]; EGI-1 cells (MSLN MFI 14.8),15.4 nM
same,IC50,[1]; H226 cells (MSLN MFI 725.3),0.13 nM
same,IC50,[1]; HAC-2 cells (MSLN MFI 172.3),320 nM
same,IC50,[1]; HCC1806 cells (MSLN MFI 189.3),0.24 nM
same,IC50,[1]; HEC-1-A cells (MSLN MFI 16.5),23.7 nM
same,IC50,[1]; HEC-1-B cells (MSLN MFI 16.9),1.6 nM
same,IC50,[1]; HEC-251 cells (MSLN MFI 53.3),0.67 nM
same,IC50,[1]; HK1 cells (MSLN MFI 39.2),5.88 nM
same,IC50,[1]; HNE-1-T1 cells (MSLN MFI 79.3),11.3 nM
same,IC50,[1]; HNE-1 cells (MSLN MFI 110.8),2.03 nM
same,IC50,[1]; HONE1 cells (MSLN MFI 108.6),5.88 nM
same,IC50,[1]; JIMT-1 cells (MSLN MFI 36.4),11.4 nM
same,IC50,[1]; [5],0.1 nM
same,IC50,[1]; Lu65 cells (MSLN MFI 13.13),15.8 nM
same,IC50,[1]; MFE-280 cells (MSLN MFI 45.1),165 nM
same,IC50,[1]; MKN1 cells (MSLN MFI 22.06),2.89 nM
same,IC50,[1]; MKN7 cells (MSLN MFI 18.48),10.4 nM
same,IC50,[1]; MKN45 cells (MSLN MFI 57.94),10.4 nM
same,IC50,[1]; MKN74 cells (MSLN MFI 7.73),9.62 nM
same,IC50,[1]; MOR/CPR cells (MSLN MFI 120.79),5.68 nM
same,IC50,[1]; NCI-H23 cells (MSLN MFI 4.42),17.3 nM
same,IC50,[1]; [6],6.37 nM
same,IC50,[1]; NCI-H322 cells (MSLN MFI 83.9),3.62 nM
same,IC50,[1]; [7],6.48 nM
same,IC50,[1]; [8],7.09 nM
same,IC50,[1]; [9],1.08 nM
same,IC50,[1]; [10],6.46 nM
same,IC50,[1]; [11],0.57 nM
same,IC50,[1]; [12],4.09 nM
same,IC50,[1]; [13],4.17 nM
same,IC50,[1]; [14],10.8 nM
same,IC50,[1]; NCI-N87 cells (MSLN MFI 125.8),0.1 nM
same,IC50,[1]; OVCAR3 A1 cells (MSLN MFI 220),0.005 nM
same,IC50,[1]; PC9 cells (MSLN MFI 11.24),15.2 nM
same,IC50,[1]; SNU216 cells (MSLN MFI 94.91),0.29 nM
same,IC50,[1]; SNU-478 cells (MSLN MFI 53.8),55.2 nM
same,IC50,[1]; SNU-1196 cells (MSLN MFI 40.2),6.49 nM
same,IC50,[1]; SUNE1 cells (MSLN MFI 212.4),0.27 nM
same,IC50,[1]; T-47D cells (MSLN MFI 4.4),22 nM
same,IC50,[1]; TFK1 cells (MSLN MFI 132.81),5.65 nM
B3,% Max Killing,[2]; A431 cells (MSLN MFI 5.6),90.76%
same,IC50,[2]; A431 cells (MSLN MFI 5.6),20.1 nM
same,% Max Killing,[2]; BxPC3 cells (MSLN MFI 15.59),94.63%
same,IC50,[2]; BxPC3 cells (MSLN MFI 15.59),2.66 nM
same,% Max Killing,[2]; SKOV3 cells (MSLN MFI 20),72.79%
same,IC50,[2]; SKOV3 cells (MSLN MFI 20),21.8 nM
same,% Max Killing,[3]; [6],75.34%
same,% Max Killing,[3]; [15],77.89%
same,% Max Killing,[3]; [16],98.47%
same,IC50,[3]; [6],4.8 nM
same,IC50,[3]; [15],1.09 nM
same,IC50,[3]; [16],0.02 nM
B4,% Max Killing,[2]; A431 cells (MSLN MFI 5.6),84.97%
same,IC50,[2]; A431 cells (MSLN MFI 5.6),109 nM
same,% Max Killing,[2]; BxPC3 cells (MSLN MFI 15.59),90.62%
same,IC50,[2]; BxPC3 cells (MSLN MFI 15.59),86.2 nM
same,% Max Killing,[2]; SKOV3 cells (MSLN MFI 20),58.41%
same,IC50,[2]; SKOV3 cells (MSLN MFI 20),214 nM
same,% Max Killing,[3]; [6],56.22%
same,% Max Killing,[3]; [15],73.49%
same,% Max Killing,[3]; [16],98.39%
same,IC50,[3]; [6],> 300 nM
same,IC50,[3]; [15],2.17 nM
same,IC50,[3]; [16],0.01 nM
